Results: PubChem BioAssay AID1963576 (National Center for Advancing Translational Sciences (NCATS), 2024)
Out of some 46,000 compounds screened, about 60 (0.1%) were called active. About 3% were inconclusive and are not listed. Calls follow the shape of the dose curve; as a rule, active = well fitted inhibition curve with a large enough effect; inconclusive = small, poorly fitted or top-dose-only effect; inactive = no such curve, though single readings can be large or run the other way. The list shows a part of the results.

experiment: Primary qHTS assay for Inhibitors of ovarian cancer metastasis using an organotypic tumor microenvironment (TME) model.; also: nearly all actives have a fitted effect of over 65% in size;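 as to activity change, negative = inhibition: plate controls were DMSO wells for no effect and tomatine positive control wells for full effect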; conditions: SKOV3ip1-GFP adhesion/invasion on 3D omental model, fluorescence; series mostly up to 45.8 µM; activity change, negative = inhibition: at the top concentration
Outline: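 Adhesion/invasion was scored as fixed GFP-labeled SKOV3ip1 cell counts (488/509 nm), normalized to DMSO and tomatine controls. Cancer cells in serum-free medium, with four compound doses (0.36-46 umol/L), sat 2 hr at RT then 16 hr at 37 C on a 48 hr fibroblast/mesothelial/ECM culture.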

outcome, inactive:
COc1ccc(N2CCN(C(c3ccccc3)c3sc4nc(-c5ccco5)nn4c3O)CC2)cc1 (stereo not given)
CCCn1c(=O)sc2cc(NC(=O)c3ccc(OC)c(Br)c3)ccc21
CC(C)CC(NS(=O)(=O)c1ccc2c(c1)oc(=O)n2C)C(=O)NCc1ccccc1Cl (stereo not given)
CCc1nn2c(=O)cc(COC(=O)CNC(=O)COc3ccc(C)cc3)nc2s1
Cc1ccc(-n2nc(CO)c(C(=O)NC(C)CCCc3ccccc3)n2)cc1 (stereo not given)
COc1ccc(Nc2nc(N)nc(N)c2S(=O)(=O)c2ccccc2)cc1
CCCN(CCC)C(=O)Cn1c(=O)n(-c2ccc(CC)cc2)c(=O)c2ccc(C(=O)NCCc3ccccc3)cc21
COc1cccc(NC(=O)CSC2=Nc3ccccc3C3=NC(CCC(=O)NCCc4ccccc4)C(=O)N23)c1 (stereo not given)
CCCCCOc1ccc(Cn2c(=O)oc3ccccc32)cc1
Cc1ccc(/C=C/c2onc(C)c2S(=O)(=O)N2CCC(C(=O)Nc3cc(C)ccc3C)CC2)cc1
Cc1cccc(NC(=O)COC(=O)CCCC2=NS(=O)(=O)c3ccccc3N2)c1
O=C(C1CCCN(S(=O)(=O)c2cccc3nsnc23)C1)N1CCN(c2ccccc2F)CC1 (stereo not given)
CCC1CN(C(=O)N2CCC(C(=O)NCc3cccc(OC)c3OC)CC2)c2cc(C)ccc2O1 (stereo not given)
CCc1ccc(NC(=O)CCn2c(=O)c3cccn3c3ccccc32)cc1
COc1cccc(-c2noc(C3CC(=O)N(c4ccc(F)cc4)C3)n2)c1OC (stereo not given)
COc1cc(NS(=O)(=O)c2cnc(N)nc2)cc(OC)c1
CCOC(=O)c1cc(C)n(CC2CCC(C(=O)Nc3ccc(C(C)=O)cc3)CC2)c1C (stereo not given)
CCN(CC)c1nc2c(-c3cccc(Br)c3)nnn2c2ccccc12
COCCCn1c(=N)c(C(=O)NCC2CCCO2)cc2c(=O)n3cc(C)ccc3nc21 (stereo not given)
Cc1ccc(Nc2c(-c3ccc(N(C)C)cc3)nc3nc[nH]n23)cc1
COC(=O)CC1Oc2ccccc2-n2cc(-c3ccc(C)cc3)nc21 (stereo not given)

Activity change, negative = inhibition, inactive:
O=C(Nc1nc2c(s1)CCCCCC2)Nc1ccc(F)cc1F 1.2%
CCOc1ccccc1C(=O)NC1(C(F)(F)F)NC(=O)N(CCc2ccc(OC)c(OC)c2)C1=O (stereo not given) 0.146%
Cc1nc2ccn(Cc3ccccc3)c(=O)c2cc1C(=O)N1CCN(c2ccccc2F)CC1 56.6%
Cc1cccc(C2C=C(c3ccc(C)c(C)c3)Nc3nnnn32)c1 (stereo not given) -4.97%
O=C(CSCc1cnn(-c2ccccc2)c1-n1cccc1)NCc1ccc(Cl)cc1 -5.95%
CCCOc1ccc(NC(=O)CC2C(=O)N(c3cccc(OC)c3)C(=O)N2Cc2cccs2)cc1 (stereo not given) 12.1%
COc1ccccc1N1CCN(C(=O)c2cn(CC(C)C)c(=O)c3c2c2ccccc2n3C)CC1 -8.52%
O=C(Nc1nnc(S(=O)(=O)N2CCCc3ccccc32)s1)c1ccccc1Cl 3.73%
CCCOc1ccc(CN(C(=O)Cc2coc3ccc(CC)cc23)C2CCS(=O)(=O)C2)cc1 (stereo not given) -14.5%
COc1ccc(NC(=O)c2c(NCc3sccc3C)sc3c2CCCC3)c(OC)c1 -6.94%
Cc1cn(C)c(CC(=O)N2CCN(c3cccc(Cl)c3)CC2)c1C(=O)O 2.74%
Cc1ccc(NC(=O)CN2CCN(S(=O)(=O)c3ccc(C(C)C)cc3)CC2)cc1F 8.52%
O=c1c2ccccc2n(Cc2ccccc2Cl)c(=O)n1CCc1ccccc1 -4.95%
CCOC(=O)c1ccc(Nc2nc3ccc(C(=O)c4ccccc4)cc3n3c(C)nnc23)cc1 -5.05%
Cc1cccc(NC(=O)c2ccc3nc(C(C)C)oc3c2)c1C -17%
Cc1ccc(-n2cc(C(=O)Oc3cccc(C)c3)c3ccccc3c2=O)cc1 4.52%
CCOc1ccc(NC(=O)C(=O)c2cc(C)n(-c3cc(C)cc(C)c3)c2C)cc1 -0.434%
Cc1ccc(NC(=O)C2CCCN(S(=O)(=O)c3ccc4c(c3)oc(=O)n4C)C2)cc1Cl (stereo not given) -14.2%
COc1ccc(-c2cc(C(=O)NCCc3ccccc3)c3c(-c4ccccc4)[nH]nc3n2)cc1OC -17.6%
CCCOc1ccc(C(=O)OCCN(CC)CC)cc1N 9.42%
COc1ccc(CCNC(=O)c2ccc3c(c2)CCN3S(=O)(=O)c2ccc(C)cc2)cc1 -0.0706%
COc1cc(Cl)c(NC(=O)CCS(=O)(=O)c2ccc3c(c2)NC(=O)CO3)c(OC)c1 -0.471%
COc1ccccc1CCNC(=O)C(=O)NCC(c1cccs1)S(=O)(=O)c1cccs1 (stereo not given) -2.19%
CCOc1ccc(S(=O)(=O)Nc2cccc(-c3ccc(OCC)nn3)c2)cc1 6.9%
O=C(Nc1ccc(S(=O)(=O)N2CCCCC2c2cccnc2)cc1)c1ccc(Br)cc1 (stereo not given) -24.5%
Cc1cc(C)c2oc(C(=O)Nc3ccc(S(=O)(=O)N4CCCCCC4)cc3)cc(=O)c2c1 0.561%
Cc1cccc(NC(=O)c2c(C)cc(C)nc2SCC(=O)c2ccccc2)c1 0.788%
COc1ccc(S(=O)(=O)c2cn(C)c3ccc(C)cc3c2=O)cc1 4.6%
O=C(Nc1ccc(F)cc1C(F)(F)F)C1CCN(c2ncccn2)CC1 32%
CCC(C)NC(=O)CSc1nc2n[nH]c(C)c2c(=N)n1-c1cc(Cl)ccc1C (stereo not given) -3.41%
CC(C)c1ccc(NC(=O)c2ccc(F)c(S(=O)(=O)N3CCc4ccccc43)c2)cc1 -5.82%
COc1ccccc1NC(=O)c1sc2nc(C)c(C(=O)Nc3ccc(C)cc3C)c(-c3ccco3)c2c1N -26.8%
CCC1=Nc2cc(C(=O)NC3CCC(C)CC3)ccc2Sc2ccc(C)cc21 (stereo not given) 2.56%
CCOc1ccc(OCC)c(Nc2ccc3cc(S(=O)(=O)N4CCCC4)ccc3n2)c1 0.323%
CSc1cccc(NC(=O)c2cccc(N3CCCS3(=O)=O)c2)c1 17.6%
Cc1ccc(NC(=O)c2ccc3[nH]c(C)cc(=O)c3c2)cc1 17.7%
COc1ccc(NC(=O)CSc2ccc3nc(-c4ccccc4)cn3n2)c(OC)c1 -20.4%
Cc1ccccc1NC(=O)CSc1nc2ccc(NC(=O)c3cccs3)cc2s1 -6.8%
COc1ccccc1CNC(=O)c1cc2sccc2n1Cc1ccc(Cl)cc1 -0.615%
CCOc1ccc(/C=C/C(=O)Nc2sc3c(c2C(=O)OC)C(C(=O)OC)CC3)cc1 (stereo not given) 2.73%
Cc1nc(-c2ccc(S(=O)(=O)Nc3ccc(C#N)cc3)cc2)co1 -5.97%
COC(=O)c1ccc(NC(=O)CSc2nc(C)cc(C)c2C(=O)Nc2ccccc2)cc1 2.11%
CCOc1cc2c(c(F)c1OCC)C(=N)N(CC(=O)c1cc(N3CCOCC3)c(OC)c(C(C)(C)C)c1)C2 -27.2%
CCCNS(=O)(=O)c1ccc2nc(NC(=O)c3ccc(F)cc3)sc2c1 21.8%
Cc1ccc2nc(N3CCN(c4ccccc4)CC3)c3nnnn3c2c1 0.154%
CCc1cccc(-n2c(=O)c3cccnc3n2CC(=O)NCc2ccccc2)c1 -5.15%
CCn1nnc2cc(C(=O)Nc3ccc(Cl)cc3C)ccc21 -5.32%
O=C(NCCC1=CCCCC1)c1ccc2c(c1)N(Cc1ccccc1F)C(=O)c1ccccc1S2=O (stereo not given) -8.48%
COc1ccc(N2CCN(C(=O)c3cccc(-n4c(C)nc5cccnc54)c3)CC2)cc1 -5.75%
COc1cc2cc(CNc3ccccc3)c(=O)n(CC(=O)Nc3ccccc3)c2cc1OC -1.35%
CCc1cccc(NC(=O)c2cn3c4c(ccc(Cl)c4c2=O)OC(C)C3)c1 (stereo not given) 7.58%
COc1cc(C(=O)OCc2cc(=O)n3nc(C4CCCCC4)sc3n2)cc(OC)c1OC -11.3%
COc1cccc(NC(=O)C2CCN(S(=O)(=O)c3cccc4nonc34)CC2)c1 9.54%
COc1ccc(CNC(=O)c2ccc(NC(=O)N3CC4CCCN4c4ccccc43)cc2)cc1 (stereo not given) 2.38%
CCN1CCN(C(c2ccc(OC)cc2)c2c(O)cc(C)n(Cc3ccco3)c2=O)CC1 (stereo not given) 52.2%
CC1CCCCN1C(=O)Cn1c(=O)n(-c2ccc(Cl)cc2)c(=O)c2c3c(sc21)CCC3 (stereo not given) 21.8%
Oc1cccc(-c2nc(N3CCOCC3)c3oc4ncccc4c3n2)c1 -11% [at 92.2 µM]
COc1cccc(NC(=O)Cn2c(=O)cc(C)c3c(C)nn(-c4cccc(F)c4)c32)c1 3.29%
Cc1ccc(-n2ncc(C(=O)NCCc3ccccc3)c2C2CCN(C(=O)OC(C)(C)C)CC2)c(C)c1 17.5%
CC(=O)c1ccc(S(=O)(=O)Nc2ccc(-c3ccc(N4CCCCCC4)nn3)cc2)cc1 3.33%
Cc1ccc2c(=O)cc(C(=O)Nc3ccc(S(=O)(=O)N4CCC(C)CC4)cc3)oc2c1C -1.76%
CSc1nc(=O)c2c(n1C)NC(=O)CC2c1ccccc1OC(C)C (stereo not given) 1.56%
COc1ccc(-c2nc3ccccc3n3c(-c4cccc(C)c4)c4c(=O)n(C)c(=O)n(C)c4c23)cc1 5.72%
Cc1ccc(CSc2nnc(-n3c(=O)c(C#N)cc4c(=O)n5cccc(C)c5nc43)s2)cc1 -7.76%
COc1cccc(-c2nn3c(=O)cc(CN4CCN(S(=O)(=O)c5ccc(C)cc5)CC4)nc3s2)c1 -17%
O=C(Cc1ccccc1)Nc1sc2c(c1C(=O)Nc1ccccc1)CCCCC2 0.71%
COc1cc(C2CC(=O)Nc3c2c(C)nn3-c2nc(C)cc(C)n2)cc(OC)c1O (stereo not given) 13.4%
COc1cccc(CNCCSc2nnnn2C)c1OCc1ccccc1 13.8%
CCc1ccc2c(c1)c(=O)c(S(=O)(=O)c1ccc(Cl)cc1)cn2CC 1.98%
CCOc1ccc(CCNC(=O)CCCn2c(=O)c3cccn3c3cccnc32)cc1OCC 21.3%
O=C(CC1(O)C(=O)N(CCc2ccccc2)c2ccc(Br)cc21)c1ccc(F)cc1 (stereo not given) -6.97%
Cc1nn(Cc2ccc(Cl)c(Cl)c2)c(C)c1NC(=O)c1noc2c1CCc1ccccc1-2 -3.57%
COc1cccc(-c2cn3c(n2)sc2cc(C(=O)NCCCc4ccccc4)ccc23)c1 2.91%
CSc1ccc(CNC(=O)C2CCCN(S(=O)(=O)N(C)c3ccc(F)cc3)C2)cc1 (stereo not given) -3.46%
